Test results reported in PubChem BioAssay AID485367 (National Center for Advancing Translational Sciences (NCATS), 2010).
The whole screen tested about 330,000 compounds, of which about 560 (0.17%) were called active. The shares of active, inactive and inconclusive entries below differ from those in the screen. The call rests on the fitted dose curve; in most records, active means well fitted inhibition curve with a large enough effect; inconclusive means small, poorly fitted or top-dose-only effect, or effect the other way; inactive means flat fitted curve, though single readings scatter. No potency is given beside an inconclusive call; the fits are too rough.

Molecular target: ATP-dependent 6-phosphofructokinase (Trypanosoma brucei brucei) (UniProt O15648)
Assay: qHTS Assay to Find Inhibitors of T. brucei phosphofructokinase; further: nearly all actives have a fitted effect of over 60% in size
Conditions: T. brucei PFK, ADP-Glo luminescence; series mostly up to 57.5 µM
Outline: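 In TEA buffer at pH 8.0 with 5 mM MgCl2, enzyme (1.25 nM) converted F6P (0.5 mM) and ATP (0.1 mM) for 45 min at room temperature. ADP product was read by luciferase luminescence.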
Potency means the concentration at half of the fitted maximal effect; tags describe the fitted curve by direction and shape.

UniProt O15648, sequence (O15648 whole entry, looked up): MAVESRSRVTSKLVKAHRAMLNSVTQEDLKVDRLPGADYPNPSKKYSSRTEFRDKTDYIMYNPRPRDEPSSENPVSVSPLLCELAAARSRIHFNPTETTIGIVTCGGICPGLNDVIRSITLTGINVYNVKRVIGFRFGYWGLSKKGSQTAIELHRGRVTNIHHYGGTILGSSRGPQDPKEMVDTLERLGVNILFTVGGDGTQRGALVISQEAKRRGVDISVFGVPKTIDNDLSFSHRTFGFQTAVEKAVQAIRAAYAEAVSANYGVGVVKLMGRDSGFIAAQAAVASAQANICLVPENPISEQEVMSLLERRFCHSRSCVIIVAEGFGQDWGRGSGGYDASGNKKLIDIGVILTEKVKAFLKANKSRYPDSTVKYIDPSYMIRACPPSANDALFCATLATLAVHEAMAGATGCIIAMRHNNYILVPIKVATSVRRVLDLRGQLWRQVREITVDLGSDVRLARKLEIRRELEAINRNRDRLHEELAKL

Structure (SMILES)	Potency
Cc1cc(C)c2[nH]c(O)c(N=NC(=S)NCC3CCCO3)c2c1 (stereo unspecified)	inactive
Cc1c(N=Cc2ccc(O)c(Br)c2)cccc1[N+](=O)[O-]	active: 26.9 µM
Cc1nc(C)c(-c2csc(Nc3ccc(O)c(C(=O)O)c3)n2)s1	inactive
O=[N+]([O-])c1ccc(NCc2ccccc2)nc1	inconclusive [falling, partial curve]
COc1ccc(C(=O)COC(=O)CCNS(=O)(=O)c2ccccc2)c(OC)c1	inconclusive [falling, single point]
O=C(Nc1ccccc1)Nc1ccc2snnc2c1	inconclusive [falling, single point]
Cc1cc(-c2nnc(CCC(=O)N(C)CCc3ccccc3)o2)no1	inactive
COc1cc(CN2CCN(c3ccccc3F)CC2)c([N+](=O)[O-])cc1OC	inactive
COC(=O)c1ccc(N2CCC(c3cc(-c4ccc(OC)cc4)n[nH]3)CC2)c([N+](=O)[O-])c1	inconclusive [falling, single point]
O=C(COc1ccc(Cl)cc1)Nc1ccc(Cc2ccncc2)cc1	inconclusive [falling, partial curve]
Fc1ccc(NCc2ccccc2F)cc1Cl	inconclusive [falling, single point]
CCCCc1ccc(-n2nnnc2SCC(=O)Nc2cc(OC)c([N+](=O)[O-])cc2C)cc1	inconclusive [falling, partial curve]
COc1cccc2cc(C(=O)C3=C(O)C(=O)N(c4cc(C)on4)C3c3cccs3)oc12 (stereo unspecified)	inactive
CCCCn1c(SCc2ccc(C(=O)OC)o2)nc2cc(S(N)(=O)=O)ccc21	inactive
COC(=O)c1ccc(N2NC(=O)/C(=C/c3cc(OC)c(OC)c(OC)c3)C2=O)cc1	inconclusive [activator, single point]
Cc1cc(C(=O)OCC(=O)NCc2ccco2)c(C)n1-c1ccccc1	inconclusive [falling, partial curve]
COc1ccccc1/C=N/NC(=O)CN(C1=NS(=O)(=O)c2ccccc21)c1ccccc1	inactive
O=C(CCCn1c(SCC(=O)NC2CCCCC2)nc2ccccc2c1=O)NCC1CCCO1 (stereo unspecified)	inactive
CC(C)(C)c1ccc(C(=O)N/C(=C\c2cccc([N+](=O)[O-])c2)C(=O)Nc2cccc(C(=O)O)c2)cc1	inconclusive [falling, single point]
Nc1ccc2c(c1Cl)C(=O)c1ccc(N)c(Cl)c1C2=O	inconclusive [falling, single point]
CCN1CCN(CC(O)COCC2COc3ccccc3O2)CC1 (stereo unspecified)	inconclusive [activator, single point]
O=C(Nc1ccc(Cl)cc1)Nc1cccc(C(=O)O)c1	inconclusive [falling, full curve]
O=C(O)C1C2C=CC3(CN(c4cccc(C(F)(F)F)c4)C(=O)C13)O2 (stereo unspecified)	inconclusive [activator, full curve, poor fit]

Structure (SMILES)	Potency
Nc1ncnc2oc(-c3ccco3)c(-c3ccco3)c12	inconclusive [falling, full curve]
Cn1c(/C(C#N)=C(\O)c2ccc([N+](=O)[O-])cc2)nc2ccccc21	inactive
CC1CCCN(c2cc3c(cc2[N+](=O)[O-])C(=O)N(c2ccccc2)C3=O)C1 (stereo unspecified)	inconclusive [activator, single point]
COc1ccc(S(=O)(=O)N2CCC(n3cnc4ccccc43)CC2)cc1	inactive
CCOC(=O)c1c(-c2ccc(C)o2)csc1NC(=O)COC(=O)c1cccs1	inconclusive [falling, single point]
COc1ccc(N(CC(=O)NC2CCCC2)C(=O)c2ccc(C)s2)cc1OC	inactive
O=C(NCC1CCCO1)/C(=C/c1cn(-c2ccccc2)nc1-c1cccnc1)NC(=O)c1ccccc1 (stereo unspecified)	inactive
N#CC1=C(N)OC2=C(CC/C2=C\c2ccc(F)cc2)C1c1ccc(F)cc1 (stereo unspecified)	inactive
CCc1cccc(C)c1NC(=O)COC(=O)CNS(=O)(=O)/C=C/c1ccccc1	inconclusive [falling, partial curve]
Clc1cc2nc[nH]c2cc1Cl	inconclusive [falling, partial curve]
CCOc1ccc(C2NCCc3cc(OC)c(OC)cc32)cc1OC (stereo unspecified)	inconclusive [activator, full curve, poor fit]
CCCCC(=O)NC(NC(=S)N1CCCCCC1)C(Cl)(Cl)Cl (stereo unspecified)	inconclusive [falling, single point]
O=C(CSc1nc2ccsc2c(=O)n1CC1CCC(C(=O)O)CC1)c1ccc(Cl)cc1 (stereo unspecified)	inconclusive [falling, single point]
Fc1ccccc1CSc1nc2ncccc2[nH]1	inconclusive [falling, single point]
Cc1ccc(C(=S)NCS(=O)(=O)c2ccc(C)cc2)cc1	active: 26.9 µM
CCCCN(C)C1=CC2=CC(=C(C#N)C#N)CCC2CC1 (stereo unspecified)	inactive
CCCc1cc(=O)n2[nH]c(C)c(-c3ccccc3)c2n1	inactive
CC(C)c1ccc(C2(C)NC(=O)N(CC(=O)N3CCN(C(=O)c4cccs4)CC3)C2=O)cc1 (stereo unspecified)	inconclusive [falling, single point]
C=CCNC(=S)N1CCc2c([nH]c3ccccc23)C1C (stereo unspecified)	inconclusive [falling, single point]
COc1ccc(/C=C/C(=O)OCC(=O)N2CCCC2)c(OC)c1	inconclusive [falling, single point]
COc1cc(OC)cc(C(=O)OCC(=O)NCc2ccco2)c1	active: 15.1 µM
COc1cc(/C=C/C(=O)Nc2cc(S(=O)(=O)N3CCOCC3)ccc2N2CCCC2)cc(OC)c1OC	inactive
CCc1ccc(-c2cc(C(=O)Nc3ccc(S(=O)(=O)NC(C)=O)cc3)c3ccccc3n2)cc1	inconclusive [falling, single point]
